Data reported in PubChem BioAssay AID360 (National Center for Advancing Translational Sciences (NCATS), 2006).
The whole screen tested about 48,000 compounds, of which about 550 (1.1%) were called active. About 4% were inconclusive and are not listed. No stated cut-off is given here; in the data, active means potency below about 15 µM; inconclusive means mostly about 16 µM to 33 µM; inactive means weaker than that. Some of the results follow.

target: Lysosomal acid glucosylceramidase (Homo sapiens) (UniProt P04062); assay: Glucocerebrosidase; details: purified enzyme, resorufin glucoside fluorescence (screen aimed at inhibitors), 20 min;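 further: the screen sought inhibitors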
Procedure, shortened: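 Normal human glucocerebrosidase (0.2 nM final) was assayed with resorufin β-D-glucopyranoside (30 uM final) in 50mM citric acid/KH2PO4, 10mM sodium taurocholate, 0.01% tween-20, pH 5.9. Compounds were titrated; fluorescence (Ex 548, Em 600) read after 20 min at RT.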
Potency means the concentration at half of the fitted maximal effect.

UniProt P04062, sequence (P04062 whole entry, looked up): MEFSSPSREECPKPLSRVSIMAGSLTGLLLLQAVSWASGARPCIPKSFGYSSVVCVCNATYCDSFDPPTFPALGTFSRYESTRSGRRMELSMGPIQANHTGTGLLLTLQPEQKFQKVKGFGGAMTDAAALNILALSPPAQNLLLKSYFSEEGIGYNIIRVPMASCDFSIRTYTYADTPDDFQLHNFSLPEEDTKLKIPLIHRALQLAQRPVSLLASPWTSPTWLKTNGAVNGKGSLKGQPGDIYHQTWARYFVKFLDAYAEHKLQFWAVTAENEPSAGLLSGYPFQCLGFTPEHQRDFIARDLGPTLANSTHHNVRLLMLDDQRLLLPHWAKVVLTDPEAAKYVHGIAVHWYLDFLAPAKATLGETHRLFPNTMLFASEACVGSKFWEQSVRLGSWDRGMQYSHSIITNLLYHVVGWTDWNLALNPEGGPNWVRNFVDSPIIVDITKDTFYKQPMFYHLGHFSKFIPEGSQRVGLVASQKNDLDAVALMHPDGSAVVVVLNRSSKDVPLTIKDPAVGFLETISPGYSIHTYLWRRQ

Potency, inactive:
O=C(COC(=O)C1CC(=O)N(c2ccc3c(c2)OCCO3)C1)NC1CCCc2ccccc21 (stereo not given) > 76.9 µM
CCC(C)n1c(SCC(=O)NC(=O)Nc2ccc3c(c2)OCCO3)nc2ccccc2c1=O (stereo not given) > 76.9 µM
Cc1ccc(N(CC(=O)NC2CCCC2)C(=O)CCCC(=O)Nc2ccccn2)cc1C > 76.9 µM
COc1ccc(C(=O)N2CCc3cc(OC)c(OC)cc3C2)cc1OC > 76.9 µM
O=C(CSc1ncnc2sc3c(c12)CCCC3)c1ccco1 > 76.9 µM
CC1CN(Cc2nc3c(c(=O)[nH]c(=O)n3C)n2CCCc2ccccc2)CC(C)O1 (stereo not given) > 76.9 µM
Cn1c(C(=O)NCc2ccc3c(c2)OCO3)cc2sccc21 > 76.9 µM
COCCNC(=O)COC(=O)CSCc1nc2ccccc2s1 > 76.9 µM
O=S(=O)(NCc1cccnc1)c1cccs1 > 76.9 µM
CCOC(=O)C1=C(C)N(c2ccccc2)C(=O)C1CC(=O)O (stereo not given) > 76.9 µM
Cc1cnc(Nc2nc3ccccc3o2)nc1C(=O)Nc1cccc(C(F)(F)F)c1 > 76.9 µM
O=C(CCc1ccccc1)n1nc(-c2ccccc2)nc1NCc1ccco1 > 76.9 µM
COc1cc(OC)c(OC)cc1CNCCNC(=O)c1nonc1N > 76.9 µM
Nn1c(-c2ccco2)n[nH]c1=S > 76.9 µM
CCC(=O)Nc1nonc1-c1nc2ccccc2n1N(C(=O)CC)C(=O)CC > 76.9 µM
O=C(CCCSc1nc(-c2ccco2)cc(C(F)(F)F)n1)Nc1ccc2c(c1)OCO2 > 76.9 µM
O=C(N1CCCCCC1)N1CCN(C(=O)N2CCCCC2)CC1 > 76.9 µM
O=C(Nc1ccc(CN2CCOCC2)cc1)c1cccs1 > 76.9 µM
COCCOC(=O)C(C#N)c1nc2ccccc2nc1N1CCN(Cc2ccccc2)CC1 (stereo not given) > 76.9 µM
CCOC(=O)c1ccc(N2C(=O)c3n[nH]c(C)c3C2c2ccc(OC)cc2)cc1 (stereo not given) > 76.9 µM
Cc1c(C(=O)O)oc2ccc(S(=O)(=O)NCc3ccccc3)cc12 > 76.9 µM
CCOC(=O)c1c2n(c3ccc(O)cc13)CCCCC2 > 76.9 µM
CCOC(=O)CN(C(=O)CN1CCOCC1)c1ccc(Br)cc1 > 76.9 µM
O=C(c1ccccc1)N1CCN(CC#CC2(O)CCCCC2)CC1 > 76.9 µM
O=S(=O)(c1ccccc1)c1nc(-c2ccco2)oc1NCCCN1CCOCC1 > 76.9 µM
CCC(=O)c1ccc(N2CCN(C(=O)Cc3ccccc3)CC2)c(F)c1 > 76.9 µM
CSc1ccc(S(=O)(=O)NCCOc2ccccc2C)cc1 > 76.9 µM
CCc1ccc(OCc2nc(-c3ccccn3)no2)c(Br)c1 > 76.9 µM
O=C(CSc1nnnn1-c1ccccc1)N1CCN(C(=O)c2ccco2)CC1 > 76.9 µM
N#Cc1cc2c(nc1SCC(=O)Nc1sc3c(c1C#N)CCC3)CCCCC2 > 76.9 µM
c1ccc(OCCSc2nnnn2-c2ccccc2)cc1 > 76.9 µM
Cc1nc2nc(C)c(CCC(=O)NCCCN3CCN(c4cccc(Cl)c4)CC3)c(C)n2n1 > 76.9 µM
Cc1ccc(-c2nnc(N3CCN(C(=O)CN4C(=O)c5ccccc5C4=O)CC3)c3ccccc23)cc1 > 76.9 µM
COc1ccccc1-n1c(SCC(=O)NC(C)(C)C)nnc1-c1ccco1 > 76.9 µM
Cc1cc(C)n(-c2nc(NCCO)c3c4c(sc3n2)CCCC4)n1 > 76.9 µM
CCN=C1SC(CC(=O)Nc2sc3c(c2C#N)CCCC3)C(=O)N1CC (stereo not given) > 76.9 µM
Cc1nc2cc(NC(=O)N3CCC(c4ccccc4)C3)ccc2n1C (stereo not given)
O=C(CCN1C(=O)c2ccccc2C1=O)Nc1sc2c(c1C(=O)NCc1ccco1)CCCC2 > 76.9 µM
Cc1nc2ccc3nc(NC(=O)c4ccc5c(c4)OCCO5)sc3c2s1 > 76.9 µM
CSc1nccn1CC(=O)Nc1ccc(F)cc1 > 76.9 µM
CC1CN(Cc2nc3c(c(=O)n(C)c(=O)n3C)n2CCc2ccccc2)CC(C)O1 (stereo not given) > 76.9 µM
CCCCn1c(-c2ccsc2)nc2c1c(=O)[nH]c(=O)n2CCC > 76.9 µM
CC[n+]1ccc(C)c2cc(S(=O)C(F)(F)F)ccc21 (stereo not given) > 76.9 µM
CCn1c(CC(=O)Nc2ccccc2)nnc1SCC(=O)Nc1ccccc1C(=O)OC > 76.9 µM
CCCNC(=O)C1CN(S(=O)(=O)c2ccccc2)CCN1S(=O)(=O)c1ccccc1 (stereo not given) > 76.9 µM
c1ccc2c(c1)CCN(Cc1nnnn1Cc1ccc3c(c1)OCO3)C2 > 76.9 µM
CCc1ccc(NC(=O)c2noc3c2CCCCC3)cc1 > 76.9 µM
Cc1ccc(NC(=O)c2cnccn2)c(OC(F)F)c1 > 76.9 µM
CC1(C)OC(=O)C(=CNc2ccc(F)cc2)C(=O)O1 > 76.9 µM
COCCN(C(=O)c1ccccc1)c1nnc(-c2cccnc2)s1 > 76.9 µM
CC(=O)CCc1c(C)c2cc(C)ccc2[nH]c1=O > 76.9 µM
O=C(NCc1ccc2c(c1)OCO2)c1ccc2c(c1)C(=O)N(CC1CCCO1)C2=O (stereo not given) > 76.9 µM
CN1C(=S)SC(C)(NO)C1(C)C (stereo not given) > 76.9 µM
COc1ccc(-c2noc(COc3ccc4c(c3)OCO4)n2)cc1 > 76.9 µM
N#Cc1ccccc1NC(=O)CSc1nnc(-c2ccccc2)n1-c1ccccc1 > 76.9 µM
COc1ccc(-c2cc(C(=O)N3CC4(C)CC3CC(C)(C)C4)no2)cc1OC (stereo not given) > 76.9 µM
Cc1c(C(N)=O)sc2nc(-c3ccccc3)cn12 > 76.9 µM
COc1cc(S(=O)(=O)N2CCOCC2)ccc1NC(=O)CSc1nnc(N)s1 > 76.9 µM
CCOc1ccccc1C(=O)N1CCN=C1SC > 76.9 µM
CCc1nn2c(N3CCOCC3)cc(C)nc2c1-c1ccc(F)cc1 > 76.9 µM
COC(=O)NC1CCS(=O)(=O)C1 (stereo not given) > 76.9 µM
O=C(NCc1ccco1)C1(S(=O)(=O)c2ccc(Cl)cc2)CC1 > 76.9 µM
COCCN(CCOC)C(=O)CCn1c(=O)oc2ccccc21 > 76.9 µM
CCn1c(N)c(C(=O)NCCCOC)sc1=S > 76.9 µM
CCn1c(SC)nnc1-c1nnc(SC)n1CC > 76.9 µM
COc1ccc(N2C(=O)CC(N3CCN(c4ccc(S(=O)(=O)N5CCCC5)cc4)CC3)C2=O)cc1 (stereo not given) > 76.9 µM
O=S(=O)(c1cccs1)N1CCC(Cc2ccccc2)CC1 > 76.9 µM
CCN(CCCNC(=O)C1CCN(S(=O)(=O)c2cnc[nH]2)CC1)c1cccc(C)c1 > 76.9 µM
O=C(COC(=O)C1CC(=O)N(Cc2ccccc2)C1)Nc1ccc2c(c1)OCO2 (stereo not given) > 76.9 µM
CCCC(c1nnnn1CCOC)N1CCN(C(=O)c2ccco2)CC1 (stereo not given) > 76.9 µM
O=C(CCNc1ccc(Cl)c(C(F)(F)F)c1)c1ccco1 > 76.9 µM
Cc1ccccc1N(Cc1nnc2n1CCCCC2)C(=O)Nc1ccccc1 > 76.9 µM
CC(=O)CCc1ccc2oc(C(=O)O)c(C)c2c1 > 76.9 µM
CC(=O)NC1CC(C)(C)N(OC(C)=O)C(C)(C)C1 > 76.9 µM
CCOC(=O)N1CCC(NS(=O)(=O)c2ccc3c(c2)C(C)(C)C(=O)N3C)CC1 > 76.9 µM
CCC(=O)Oc1ccc(C2N(C(=O)CC)CCN2S(=O)(=O)c2ccc(C)cc2)cc1OC (stereo not given) > 76.9 µM
CCCCCCn1c(CN2CCC(C)CC2)nc2c1c(=O)n(C)c(=O)n2C > 76.9 µM
Cc1noc(C)c1S(=O)(=O)N1CCC(C(=O)N2CCN(c3ccccc3Cl)CC2)CC1 > 76.9 µM
CCOC(=O)CNC(=O)Cn1cnc2c(nnn2-c2cccc(Cl)c2)c1=O > 76.9 µM
Cc1ccc(-c2noc(C3CCN(S(=O)(=O)c4ccc5c(c4)OCCO5)CC3)n2)o1 > 76.9 µM
COc1ccccc1NC(=O)N1CCN(c2ncccn2)CC1 > 76.9 µM
Cc1cc(=O)[nH]c(-n2nc(C)cc2C)n1 > 76.9 µM
Cc1nnc2ccc(Oc3ccc(-c4ccccc4)cc3)nn12 > 76.9 µM
COCCn1c(SCC(=O)N2CCC(C)CC2)nc2ccccc2c1=O > 76.9 µM
COc1ccc(N2CCN(c3nc4c(c(=O)n(C)c(=O)n4C)n3Cc3ccccc3)CC2)cc1 > 76.9 µM
O=C(CCCN1C(=O)CCC1=O)Nc1ccc2c(c1)OCCO2 > 76.9 µM
CCC(=O)N1CCc2cc(S(=O)(=O)CCC(=O)N3CCc4ccccc4C3)ccc21 > 76.9 µM
CCC(C)Cn1c(S(=O)(=O)O)nc2ccccc21 (stereo not given) > 76.9 µM
CCCCn1c(SCC(=O)Nc2nnc(CC)s2)nc2c1c(=O)n(C)c(=O)n2C > 76.9 µM
COc1ccc(-c2cnc(N)nc2-c2ccc(OC)cc2O)cc1 > 76.9 µM
